The supplement of paper PMC4166925
± gives the standard deviation of the averaged measurements. In all, about 33,000 sequences were measured (“E-score (dimensionless, -0.5 to 0.5)”: median about -0.049, highest 2% from about 0.37 on). The list shows a part of the results.

These sequences were tested on T1, PmTbr T-box DNA-binding domain (GST fusion) (assay: PBM E-score of 8-mer (E-score (dimensionless, -0.5 to 0.5)); Tbr is Tbrain of the sea star Patiria miniata (Pm) or the sea urchin Strongylocentrotus purpuratus (Sp); higher = stronger binding preference; most listed sequences are background and not binding sites). Settings: the construct has about 5 more residues each side.
T1 sequence: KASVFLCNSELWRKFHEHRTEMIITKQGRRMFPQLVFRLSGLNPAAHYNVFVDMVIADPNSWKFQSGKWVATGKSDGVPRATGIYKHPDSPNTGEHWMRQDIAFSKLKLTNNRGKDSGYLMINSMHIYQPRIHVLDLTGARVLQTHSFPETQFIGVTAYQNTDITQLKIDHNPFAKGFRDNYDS
Procedure, shortened: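 GST-fused Tbr T-box DNA-binding domains (the whole T-box plus about five flanking residues) were expressed in BL21 E. coli at 20 °C and purified by glutathione affinity chromatography. Universal Agilent oligonucleotide arrays were made double-stranded by primer extension, incubated with 200 nM protein in PBS (pH 7.5), then scanned and quantified. Every ungapped 8-mer was scored from probe intensities. The Universal PBM Analysis Suite gave each word an enrichment E-score, averaged over duplicate arrays.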

Sequence | PBM E-score of 8-mer
GACGTGTA | 0.149 ± 0.019
AACACGAA | 0.0255 ± 0.012
GAAGGCTA | -0.188 ± 0.0033
CTATGAAC | 0.0868 ± 0.031
AACACCAC | 0.3719 ± 0.0024
GCTGAAAA | 0.00941 ± 0.013
CGGATCCA | -0.0512 ± 0.084
AGTAGTCA | -0.0777 ± 0.054
GAATTGGC | 0.00583 ± 0.0077
ATAAACAT | -0.0888 ± 0.037
GTATGCAA | -0.141 ± 0.029
AACCGGTA | 0.0232 ± 0.018
ACCGTGTA | 0.0543 ± 0.064
CAATCCAC | -0.0294 ± 0.022
TAAGCTGA | -0.126 ± 0.0068
CTGAAGAA | -0.165 ± 0.065
CTCACCAC | 0.209 ± 0.054
TAACCTAA | 0.0219 ± 0.063
TCATATAA | -0.11 ± 0.038
ATCGAATA | -0.131 ± 0.025
AGCTGCCT | 0.0585 ± 0.059
TAAATTCA | -0.1 ± 0.031

Sequence | PBM E-score of 8-mer
CCACCAGA | -0.0155 ± 0.03
GTACATCA | -0.0746 ± 0.021
CTCTAGAA | -0.125 ± 0.028
GGGAGAGA | 0.0403 ± 0.0062
CCTTGGGC | -0.035 ± 0.01
AGCTTTAG | -0.11 ± 0.083
ACGGTCCG | 0.0322 ± 0.021
GGGCACAA | -0.0969 ± 0.053
GTCGAAGA | -0.219 ± 0.02
CGACGTAC | -0.051 ± 0.087
CGTAGACG | -0.21 ± 0.078
GCGTGTAA | 0.0292 ± 0.033
CGCCCTAC | -0.103 ± 0.061
AACAACTC | 0.138 ± 0.0062
CCCATTAG | -0.158 ± 0.063
ATATGAGA | -0.161 ± 0.0032
ACTAATTG | 0.0318 ± 0.075
GAACGTGC | 0.155 ± 0.023
ACGTCGAG | 0.0805 ± 0.015
GAGAGTGC | 0.235 ± 0.059
CGTGCAAA | 0.11 ± 0.0028
GGCAAACA | 0.0878 ± 0.028

Sequence | PBM E-score of 8-mer
CCAGATCC | -0.00069 ± 0.11
AACCGACT | -0.0591 ± 0.054
CGACTGCA | -0.204 ± 0.15
AACAAACC | -0.0345 ± 0.066
AGTGACTA | 0.115 ± 0.011
ACAGATGC | 0.0482 ± 0.0091
CTCAAGAC | -0.141 ± 0.045
ACCTATAG | -0.0514 ± 0.14
AGGCCATG | -0.279 ± 0.0077
GCAAAAAC | 0.103 ± 0.0046
CCTCATAC | -0.11463 ± 9.9e-05
TCAGTAAA | -0.175 ± 0.076
CTCACCCC | 0.295 ± 0.021
CGCCGCGA | 0.141 ± 0.049
GTTAACTA | 0.131 ± 0.037
CGTCCCAA | -0.169 ± 0.0075
CATCTCCC | -0.0811 ± 0.059
ATGAAAAT | -0.027 ± 0.027
ATGGCCAC | -0.148 ± 0.062
TAAGAGGA | -0.184 ± 0.03
CAGTTCAG | -0.242 ± 0.024
AAAATTAC | 0.0695 ± 0.1

Sequence | PBM E-score of 8-mer
AAGGCGAG | 0.293 ± 0.031
GTTGAAAA | 0.102 ± 0.13
CCGTCTAA | -0.215 ± 0.069
CTGTAAGA | 0.00129 ± 0.065
AACGGACT | 0.123 ± 0.061
ACGGCACA | 7.5e-05 ± 0.098
GTTTATTA | -0.1957 ± 0.00052
ACATCCAA | 0.0673 ± 0.015
GTCCTCCA | -0.177 ± 0.035
TAATAGTA | -0.151 ± 0.03
ATCGGAAG | 0.0222 ± 0.087
CCTAGGAG | 0.0157 ± 0.015
GGGCGGAA | -0.152 ± 0.023
CCGATCAA | 0.0729 ± 0.051
GGATGAAC | -0.097 ± 0.046
GTCGGCCA | -0.0588 ± 0.0088
CCCTAAAA | 0.0409 ± 0.091
ACCAAGCG | 0.09091 ± 0.00011
TACATGTA | -0.28 ± 0.064
CCCCCCAC | -0.302 ± 0.056
